Measurements taken from PubChem BioAssay AID1479 (National Center for Advancing Translational Sciences (NCATS), 2009).
Values joined by “and” are separate entries in the source; they are usually repeats but may differ in a detail not shown here. Equal entries are not always repeated. Screen size: about 280,000 compounds; about 820 (0.29%) were called active. The shares of active, inactive and inconclusive entries below differ from those in the screen. Calls come from the whole dose curve; as a rule, active = well fitted curve in either direction with a large enough effect; inconclusive = small, poorly fitted or top-dose-only effect; inactive = flat fitted curve, though single readings scatter. Potencies of inconclusive entries are left out as doubtful fits.

experiment: Total Fluorescence Counterscreen for Inhibitors of the Interaction of Thyroid Hormone Receptor and Steroid Receptor Coregulator 2; settings: TRb/SRC2 Texas Red total fluorescence interference; series mostly up to 106 µM
Summary of the method: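 Human TRβ ligand-binding domain (0.6 uM) and Texas Red SRC2 peptide (20 nM) in Tris buffer with 1 uM T3 and 5% DMSO were incubated with pinned compound for 5 hr at ambient temperature. Total fluorescence was computed as S + 2P (555/632 nm).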
% is set by controls: 0 for no effect and ±100 for the full control effect; potency is the fitted concentration of half-maximal effect; tags give direction and shape of the fitted curve or compound fluorescence and quenching.

Q: With `Cc1ccc(/C=N/n2c(C)nnc2C)s1` as the molecule, how does the Potency read?
A: inactive

Q: Which Potency does the source give for `COCCSc1ccccc1C(=O)Nc1nccs1` here?
A: inactive

Q: With `Cc1ccc(CNc2nc3ccccc3n3cnnc23)cc1` as the molecule, how does the Potency read?
A: inconclusive [quencher, full curve]

Q: For `CCN(CCCNC(=O)Cn1ncc2c([nH]c3ccc(C)cc32)c1=O)c1ccccc1`, which Potency is on record?
A: inconclusive [falling, full curve, poor fit]

Q: For `O=C(NCCO)c1ccc2nc(-c3ccco3)c(-c3ccco3)nc2c1`, which Potency is on record?
A: inconclusive [quencher, partial curve]

Q: With `CCOC(=O)Cn1c(=O)n(CC2CCCO2)c2nc(-c3cc(OC)ccc3OC)nc(C(N)=O)c21` (stereo unspecified) as the molecule, how does the Potency read?
A: inconclusive [quencher, partial curve]

Q: With `Cc1ccc(C(=O)CSc2nc(C)cc(C)c2C(=O)Nc2cccc(C)c2)cc1` as the molecule, how does the Potency read?
A: inconclusive [falling, partial curve, poor fit]

Q: Which Potency does the source give for `CC(C)COc1ccc(C(=O)N2CCCCC2CCN2CCOCC2)cc1` (stereo unspecified) here?
A: inactive

Q: With `COc1cccc2cc(-c3nc4sc5c(c4c(=O)[nH]3)CCC(C(C)(C)C)C5)c(=O)oc12` (stereo unspecified) as the molecule, how does the Potency read?
A: inconclusive [quencher, full curve]

Q: Which Potency does the source give for `CCOC(=O)c1c(NC(=O)Cc2coc3ccc(CC)cc23)sc2c1CCC2` here?
A: inactive

Q: Which Potency does the source give for `CCOC(=O)N1CCc2c(sc3c2c(=O)n(-c2ccc(CC)cc2)c(=O)n3Cc2ccc(F)cc2Cl)C1` here?
A: inactive

Q: Which Potency does the source give for `COc1cc(OC)c(-n2cc(-c3ccc(Cl)cc3)[nH]c2=O)cc1Cl` here?
A: active: 126 µM [quencher]

Q: For `Cc1nn(CC(=O)NC2CC2)c(=O)c2cc3cc(F)ccc3n12`, which Potency is on record?
A: inconclusive [quencher, full curve]

Q: Which Potency does the source give for `CCc1ccc(NC(=O)CC(NCc2cccnc2)C(=O)O)cc1` (stereo unspecified) here?
A: inactive

Q: Which Potency does the source give for `COc1ccc(/C=C2/C(=O)N(c3nc4ccccc4s3)N=C2CSc2ccc(Cl)cc2)cc1` here?
A: inconclusive [quencher, full curve]

Q: With `COc1ccc(O)c(C(=O)c2cc(C#N)c(=O)n(CC3CCCO3)c2)c1` (stereo unspecified) as the molecule, how does the Potency read?
A: inactive

Q: Which Potency does the source give for `CCC(/C=C1\Sc2ccc(OC)cc2N1CC)=C\c1sc2ccc(OC)cc2[n+]1CCCS(=O)(=O)[O-]` here?
A: active: 39.8 µM [fluorescent]

Q: With `CCn1c(C)c(C2=CCN(S(=O)(=O)c3ccccc3)CC2)c2ccccc21` as the molecule, how does the Potency read?
A: inconclusive [fluorescent, partial curve]

Q: Which Potency does the source give for `CCCNC(=O)c1ccc2c(c1)N=C(CCC)c1ccccc1S2` here?
A: inactive

Q: Which Potency does the source give for `O=C(Cn1nc2c(cc1=O)CCCC2)NCc1ccc(Cl)cc1` here?
A: inconclusive [falling, full curve, poor fit]

Q: For `COc1ccc(N2CCN(C(=O)c3cc4c(=O)oc5ccc(C)cc5c4s3)CC2)cc1`, which Potency is on record?
A: inconclusive [falling, full curve, poor fit]

Q: With `COCCNC(=S)Nc1ccc2nc(N3CCCC3)cc(C)c2c1` as the molecule, how does the Potency read?
A: inactive

Q: With `COC(=O)CCC(=O)OC1(C)C(=O)C2=CN(Cc3ccccc3)C(c3ccc(OC)cc3)=CC2=C(Br)C1=O` (stereo unspecified) as the molecule, how does the fluorescence change, negative = quenching read?
A: inactive: -3.48% [at 11.2 µM]

Q: For `Fc1cc(F)c2nc(Nc3nc4cc5c(cc4s3)OCO5)sc2c1`, which Potency is on record?
A: active: 35.5 µM [quencher]

Q: For `Cc1ccc(-c2csc(NC(=O)C3=COCCO3)n2)cc1`, which Potency is on record?
A: inconclusive [falling, partial curve, poor fit]

Q: With `CN1CCN(C2(CNC(=O)c3ccc([N+](=O)[O-])cc3)CCCCC2)CC1` as the molecule, how does the Potency read?
A: inconclusive [falling, partial curve, poor fit]

Q: For `CCCSC1=N/C(=C\C=C\c2ccco2)C(=O)S1`, which Potency is on record?
A: inconclusive [quencher, partial curve]

Q: With `O=C(CN1C(=O)COc2ccc(S(=O)(=O)N3CCCC3)cc21)NC1CCCCCCC1` as the molecule, how does the Potency read?
A: inconclusive [quencher, partial curve]

Q: With `O=C(Nc1ccc(F)cc1)c1oc2ccccc2c1NC(=O)C1CCCCC1` as the molecule, how does the Potency read?
A: inactive

Q: With `CCc1ccc(C2c3c(oc4cc(C)c(C)cc4c3=O)C(=O)N2c2nc(C)c(C(=O)OC)s2)cc1` (stereo unspecified) as the molecule, how does the Potency read?
A: inconclusive [falling, full curve, poor fit]

Q: With `Cc1ccc2cc(/C=N/NC(=O)[C@H](C)NC(=O)OC(C)(C)C)c(Cl)nc2c1` as the molecule, how does the Potency read?
A: inconclusive [quencher, full curve]

Q: For `CCOC(OCC)OCC`, which Potency is on record?
A: inconclusive [falling, partial curve, poor fit]

Q: For `CC(C)[C@H](NC(=O)[C@H](CCC(N)=O)NC(=O)CNC(=O)[C@@H]1CCCN1C(=O)[C@H](Cc1ccc(O)cc1)NC(=O)CN)C(=O)O`, which Potency is on record?
A: inconclusive [falling, full curve, poor fit]

Q: For `Cc1ccc(O)c(NC(=S)NC(=O)COc2ccc(Br)cc2)c1`, which Potency is on record?
A: inconclusive [rising, single point]

Q: For `CCCCc1nc2c(c3c1C[C@H](C)OC3)CN(C(=O)COC)CC2`, which fluorescence change, negative = quenching is on record?
A: inactive: -16.6% [at 11.2 µM]

Q: Which Potency does the source give for `CC(=O)C1=C(S(=O)(=O)c2ccc(C)cc2)CS(=O)(=O)C1` here?
A: inactive

Q: With `CCCn1nc(C(=O)Nc2nc3ccccc3[nH]2)c2ccccc2c1=O` as the molecule, how does the Potency read?
A: inactive

Q: With `CSc1nc(SCCO)c2sc3nc(-c4ccco4)c4c(c3c2n1)CC(C)(C)OC4` as the molecule, how does the Potency read?
A: inconclusive [quencher, partial curve]

Q: For `COC(=O)C1=C(C(=O)OC)[C@@H]2Nc3ccccc3[C@@]23C[C@@H](C(=O)OC)N(S(=O)(=O)c2cccs2)C3=N1`, which fluorescence change, negative = quenching is on record?
A: inactive: -2.67% [at 11.2 µM]

Q: For `O=C(O)c1c(Cl)c(Cl)c(Cl)c(Cl)c1-c1c2cc(I)c(=O)c(I)c-2oc2c(I)c(O)c(I)cc12`, which Potency is on record?
A: active: 3.98 µM [fluorescent] and active: 2.82 µM [fluorescent]

Q: Which Potency does the source give for `CCn1c(C)nc2cc(C(=O)N/N=C/c3ccc(O)c(O)c3O)ccc21` here?
A: inconclusive [falling, single point]

Q: Which Potency does the source give for `CCOC(=O)C1CCN(CCC(=O)Nc2ccccc2OC)CC1` here?
A: inconclusive [falling, full curve, poor fit]

Q: For `CCOc1ccc(N(Cc2ccccc2)C(=O)c2nc(SC)ncc2Cl)cc1`, which Potency is on record?
A: inconclusive

Q: Which Potency does the source give for `CCN(CC)c1nn2c(=O)c(C(=O)NCCc3ccccc3C)cnc2s1` here?
A: inconclusive [falling, partial curve, poor fit]

Q: With `COc1ccc(C(=O)OCC(=O)NC(=O)NC2CCCC2)c(O)c1` as the molecule, how does the Potency read?
A: inactive

Q: For `CCOC(=O)N1CCC2(CC1)C(C#N)=C(N)Oc1c2c(C)nn1-c1cccc(Cl)c1`, which Potency is on record?
A: inactive

Q: Which Potency does the source give for `Cc1ccc(Nc2nc3ccc(C(=O)c4ccccc4)cc3n3c(C)nnc23)c(C)c1` here?
A: inconclusive [rising, single point]

Q: With `Cc1ccccc1N1CC(c2nnc(NC(=O)c3ccco3)s2)CC1=O` (stereo unspecified) as the molecule, how does the Potency read?
A: inconclusive [falling, partial curve, poor fit]

Q: Which Potency does the source give for `CCOC(=O)COc1ccc(C)cc1C(=O)c1ccn2nc(-c3ccc(Cl)cc3)cc2n1` here?
A: inconclusive [falling, full curve, poor fit]

Q: With `CC[N+]1=C(C)C(C)(C)c2cc(C)ccc21` as the molecule, how does the Potency read?
A: active: 39.8 µM [fluorescent]

Q: Which Potency does the source give for `CC1CC(=O)NN=C1c1ccc(N)c([N+](=O)[O-])c1` (stereo unspecified) here?
A: inconclusive [falling, full curve, poor fit]

Q: For `CCOC(=O)c1c(NC(=O)c2cc(=O)c3cc(C)cc(C)c3o2)sc(C)c1C`, which Potency is on record?
A: inconclusive [falling, partial curve, poor fit]

Q: For `Cc1c(NC(=O)C(C)(C)Oc2ccc(Cl)cc2)cccc1-c1nc2ccccc2o1`, which Potency is on record?
A: inconclusive [falling, full curve, poor fit]

Q: With `COc1cccc(C(=O)NCCC2=CCCCC2)c1` as the molecule, how does the Potency read?
A: inactive

Q: Which Potency does the source give for `O=C(Nc1sc2c(c1C(=O)Nc1ccccc1)CCC2)c1ccc(Br)cc1` here?
A: inconclusive [falling, partial curve, poor fit]

Q: For `O=C(OCC(=O)N1CCCCCC1)c1ccc(Cl)c(S(=O)(=O)N2CCCC2)c1`, which Potency is on record?
A: inactive

Q: For `OCCCn1c(-c2ccc(F)cc2)csc1=Nc1ccc(F)cc1`, which Potency is on record?
A: inconclusive [quencher, full curve]

Q: For `COc1cc(NC(=O)C(Cc2ccccc2)NS(=O)(=O)c2cccs2)cc(OC)c1` (stereo unspecified), which Potency is on record?
A: inconclusive [falling, partial curve, poor fit]

Q: Which Potency does the source give for `CCc1cccc(C)c1NC(=O)CN1C(=O)C2(SCC(=O)N2c2cccc(F)c2)c2ccccc21` (stereo unspecified) here?
A: active: 20 µM [quencher]

Q: Which Potency does the source give for `CC(C)NC[C@H](O)c1ccc(O)c(O)c1` here?
A: inactive

Q: With `CCCCC1=CC2=C(c3ccco3)C(=O)C(C)(OC(=O)c3ccc(OC)cc3)C(=O)C2=CN1Cc1ccco1` (stereo unspecified) as the molecule, how does the Potency read?
A: inconclusive [quencher, full curve]

Q: With `CC(C(=O)Nc1ccc(OC(F)(F)F)cc1)N1Cc2ccccc2C1=O` (stereo unspecified) as the molecule, how does the Potency read?
A: inconclusive [quencher, full curve]

Q: With `CCOC(=O)c1cccc(NC(=O)c2oc3c(c2C)-c2nn(CC)cc2CC3)c1` as the molecule, how does the Potency read?
A: inconclusive [falling, partial curve, poor fit]

Q: Which Potency does the source give for `O=C(COc1ccccc1)NCC(c1ccc(Cl)cc1)N1CCOCC1` (stereo unspecified) here?
A: inconclusive [falling, partial curve, poor fit]

Q: With `Cc1c(C(=O)C(=O)N2CCCc3ccccc32)c2ccccc2n1C` as the molecule, how does the Potency read?
A: inconclusive [falling, full curve, poor fit]

Q: Which Potency does the source give for `Cc1ccc(-c2nnc(Nc3ccc(C(=O)N(C)C)cc3)c3ccccc23)cc1S(=O)(=O)N(C)C` here?
A: inactive
